Reference: PubChem BioAssay AID493208 (National Center for Advancing Translational Sciences (NCATS), 2011)
Out of some 44,000 compounds screened, about 340 (0.77%) were called active. About 5% were inconclusive and are not listed. Calls follow the shape of the dose curve; as a rule, active = well fitted inhibition curve with a large enough effect; inconclusive = small, poorly fitted or top-dose-only effect; inactive = flat fitted curve, though single readings scatter. Some of the results follow.

assay: Acumen qHTS Assay for Inhibitors of the mTORC1 Signaling Pathway in MEF (Tsc2-/-, p53-/-) Cells: Sytravon; details: phospho-rpS6 immunofluorescence/PI, 24 h; series mostly up to 38.3 µM; activity change, negative = inhibition: at the top concentration;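 also: plate controls were DMSO for no effect and rapamycin for full effect; nearly all actives have a fitted effect of over 50% in size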
In short: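 Cell-based qHTS: Tsc2-/- p53-/- MEF, 24 h cpd, 37 °C; fix/perm, anti-phospho-S6 Alexa-488 + PI; Acumen 488 nm scan; pS6/PI ratio, % positive cells; rapamycin 7.5 nM = inhibition ref; PI count = viability.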

| Compound | activity change, negative = inhibition |
| --- | --- |
| Fc1cccc(Cl)c1CNCCSc1nnnn1-c1ccccc1 | inactive: 2.95% |
| COc1cccc(C(=O)N(Cc2ccco2)c2ccccn2)c1 | inactive: -0.16% |
| O=C(CNC(=O)c1ccccc1F)OCc1cc(=O)n2nc(C3CCCCC3)sc2n1 | inactive: -3.5% |
| CCOc1ccc(CCNC(=O)CN2C(=O)COc3ccc(S(=O)(=O)N4CCCCCC4)cc32)cc1 | inactive: 5.24% |
| CCC(=O)C1=C(c2ccc(OC)c(OC)c2)N(C(=O)CC)n2c(CC)nnc2S1 | inactive: -6.69% |
| Cc1ccc(NC(=O)c2c(NC(=O)Cc3ccccc3)sc3c2CCCC3)cc1 | inactive: 13.6% |
| CC(=O)Nc1ccc(NC(=O)CCSCCc2ccccn2)cc1 | inactive: -5.14% |
| CN(C)c1ccc(CNC(=O)c2ccc(NC(=O)N3CCCCc4ccccc43)cc2)cc1 | inactive: 1.08% |
| N#Cc1c(-n2ncnc2-c2cccc(Br)c2)sc2c1CCCCC2 | inactive: 6.89% |
| COc1ccc(-n2c(SCC(=O)Nc3cccc(C)c3C)nc3c([nH]c4ccccc43)c2=O)cc1 | inactive: -7.76% |
| Cc1ccc2oc(=O)c3cc(C(=O)N4CCN(c5ccccc5F)CC4)sc3c2c1 | inactive: -7.12% |
| O=S(=O)(Nc1cc(F)ccc1F)c1ccc2[nH]c3c(c2c1)CCCCC3 | inactive: -15.8% |
| CC(C)(C)c1ccc(Oc2ccc(NC(=O)CCC(=O)OCC(=O)c3ccccc3)cc2)cc1 | inactive: 3.37% |
| Cc1ccc(Cl)cc1N1CCN(C(=O)CCCn2c(=O)[nH]c3ccc(Br)cc3c2=O)CC1 | inactive: -2.5% |
| CCc1ccccc1NC(=O)C1CCN(c2cnccn2)CC1 | inactive: 2.71% |
| CC(=O)c1ccc(Nc2ccc3cc(S(=O)(=O)N4CCCC4)ccc3n2)cc1 | inactive: -0.0857% |
| O=C(CCn1cnnn1)Nc1cc(C(F)(F)F)cc(C(F)(F)F)c1 | inactive: -4.99% |
| CC(=O)c1nnn(-c2ccc(C)cc2Cl)c1C | inactive: -1.34% |
| COc1ccc2c(c1)c1c(c(=O)n(-c3ccc(OC)c(OC)c3)c(=O)n1Cc1ccccc1F)n2C | inactive: -0.194% |
| COc1cc(NC(=O)CSc2nccn2C)cc(OC)c1OC | inactive: 8.76% |
| CC(C)CCn1nnc2sc(-c3ccccc3)cc2c1=O | inactive: -0.501% |
| O=C(NCCS(=O)(=O)N1CCN(c2ccc(F)cc2)CC1)c1cccc(C(F)(F)F)c1 | inactive: 10.1% |
| CCCCSCCCNC(=O)c1cn(C)c2ccc(S(=O)(=O)N3CCCCCC3)cc2c1=O | inactive: 9.3% |
| COc1cc(OC)c(NC(=O)c2nn(-c3ccc(C)cc3)c(=O)c3c2c2ccccc2n3C)cc1Cl | inactive: 8.53% |

| Compound | activity change, negative = inhibition |
| --- | --- |
| O=C(Nc1cccc(C(=O)N2CCN(c3cccc(Cl)c3)CC2)c1)c1nsc2ccccc12 | inactive: 7.34% |
| O=C(NCc1ccccc1Cl)c1ccc(Cn2c(SCc3ccccc3)nc3cccnc32)cc1 | inactive: -1.8% |
| Cc1ccccc1Cn1c2ccccc2c2cnn(CC(=O)NCC(C)c3ccccc3)c(=O)c21 (stereo not drawn) | inactive: -4.26% |
| CCc1ccccc1NC(=O)c1ccc2c(SCC(=O)O)c3c(nc2c1)CCC3 | inactive: -15.9% |
| CCOc1ccc(C2c3c(oc4ccc(C)cc4c3=O)C(=O)N2CCCN(C)C)cc1 (stereo not drawn) | inactive: -1.63% |
| CCOC(=O)C1CCN(C(=O)c2ccc(NC(=O)c3nsc4ccccc34)cc2)CC1 | inactive: -6.65% |
| O=C(CCn1ccc2cc(S(=O)(=O)N3CCCC3)ccc21)NCc1cccc(Cl)c1 | inactive: -3.38% |
| Cc1cc(C(=O)NCc2cccc(Br)c2)c2c(C)nn(-c3ccccc3)c2n1 | inactive: 1.88% |
| CC(=O)N1c2ccc(S(=O)(=O)NCC3CCC(C(=O)Nc4ccc(C)c(C)c4)CC3)cc2CC1C (stereo not drawn) | inactive: -21% |
| Cc1ccc(NC(=O)c2ccc(CNS(=O)(=O)c3ccc4c(c3)C(C)(C)C(=O)N4C)cc2)cc1C | inactive: -4.38% |
| COc1cc(CCNC(=O)c2ccc3c(c2)c(C)c(C)n3Cc2cccc(C)c2)cc(OC)c1OC | inactive: -9.65% |
| COc1ccc(OC)c(Nc2ncnc3c2nc2n3CCCC2)c1 | inactive: -11.8% |
| COCCCn1c(=N)c(C(=O)NCc2cccnc2)cc2c(=O)n3cc(C)ccc3nc21 | inactive: 1.23% |
| CCOc1ccc(NC(=O)c2nc3nc(C)cc(C(F)F)n3n2)cc1 | inactive: -1.04% |
| Cc1cc(C)c2c(-n3cccc3)c(C(=O)NCc3cccc(F)c3)sc2n1 | inactive: 2.12% |
| CCc1nnc(SCc2ccc(OC)cc2)c2cc3sc(C)cc3n12 | inactive: 1.95% |
| Cc1cc(C)c(NC(=O)CCn2c(=O)c3cccn3c3ccccc32)c(C)c1 | inactive: -4.68% |
| CCN1CCN(C(c2ccc(SC)cc2)c2c(O)cc(C)n(Cc3ccco3)c2=O)CC1 (stereo not drawn) | inactive: -21% |
| COc1ccccc1NC(=O)C1CCN(S(=O)(=O)c2ccc3[nH]c4c(c3c2)CCCCC4)CC1 | inactive: -13.4% |
| O=C(COC(=O)C(Cc1c[nH]c2ccccc12)NC(=O)c1ccc(Cl)cc1)c1ccc(Cl)cc1 (stereo not drawn) | inactive: -1.28% |
| Cc1nn(-c2ccccc2)c2c1cc1c(=O)n(C)c(=O)nc-1n2-c1cccc(Cl)c1 | inactive: 4.47% |
| Oc1ccc(-c2nc(-c3ccccc3)c(-c3ccc(Br)cc3)[nH]2)cc1 | inactive: 2.85% |
| COc1ccc(-c2cc(=O)c3cc(OCC(=O)OC(C)C)ccc3o2)cc1 | inactive: -8.43% |
| COc1ccc(CCNC(=O)c2oc(=O)c3ccccc3c2-c2ccccc2)cc1OC | inactive: -2.02% |

| Compound | activity change, negative = inhibition |
| --- | --- |
| COc1ccc(CNC(=O)CN2C(=O)COc3ccc(S(=O)(=O)N4CCC(C)CC4)cc32)cc1 | inactive: -2.09% |
| Cc1ccc(NC(=O)Cn2c(=O)n(CCCCC(=O)NCCc3ccc(Cl)cc3)c(=O)c3ccccc32)cc1 | inactive: 0.0826% |
| COC(=O)c1sc(N2C(=O)c3oc4ccccc4c(=O)c3C2c2ccc(O)cc2)nc1C (stereo not drawn) | inactive: 3.06% |
| COc1cc(NC(=O)CCS(=O)(=O)c2nc(-c3ccc4c(c3)OCO4)cc(C(F)(F)F)n2)cc(OC)c1OC | inactive: 12.5% |
| CCc1c(C)sc2c1CCN(C(=O)Nc1cc(C)cc(C)c1)C2c1ccccc1 (stereo not drawn) | inactive: 3.04% |
| COCCCNC(=O)CSc1nc2cc3c(cc2c(=O)n1CCCCCC(=O)NCc1ccc2c(c1)OCO2)OCO3 | inactive: -0.239% |
| CCCCNC(=O)C1CCC(CNS(=O)(=O)c2ccc(C)cc2)CC1 (stereo not drawn) | inactive: -0.0302% |
| Cc1nc(NC(=O)c2c(-c3ccccc3)c(-c3ccccc3)nn(C)c2=O)sc1C | inactive: 1.07% |
| Cc1cccc(NC(=O)c2sc3nc4c(cc3c2N)CN(C(C)C)CC4)c1 | inactive: -0.49% |
| CCc1ccc(S(=O)(=O)Nc2ccc3[nH]c(=O)sc3c2)cc1 | inactive: -0.452% |
| Cc1cccc(N2CCN(C(=O)CN3C(=O)COc4ccc(S(=O)(=O)N5CCOCC5)cc43)CC2)c1C | inactive: 0.446% |
| CCC1CCCCN1C(=O)CSc1nc(-c2ccc(OC)c(OC)c2)cc(C(F)(F)F)n1 (stereo not drawn) | inactive: -12.9% |
| CC1=C(C(=O)OC2CCCCCC2)C(c2cccc(F)c2F)CC(=O)N1 (stereo not drawn) | inactive: -17.8% |
| COc1cc(NC(=O)CCCc2nnc3n(CC(C)C)c(=O)c4sccc4n23)cc(OC)c1 | inactive: -6.77% |
| Cc1ccc(Cn2c(SCC(=O)NCc3ccccc3Cl)nc3ccsc3c2=O)cc1 | inactive: -10.3% |
| Fc1ccc(Nc2nc(SCc3ccccc3F)nc3ccccc23)cc1 | inactive: -0.5% |
| CCOC(=O)c1cc2c(=O)n3ccccc3nc2n(Cc2ccco2)c1=NC(=O)c1cccc(F)c1 | inactive: 3.86% |
| Cc1cc([N+](=O)[O-])ccc1NC(c1nnc(-c2ccccc2)o1)c1ccccc1F (stereo not drawn) | inactive: -11.6% |
| CC(=O)N1CCc2cc(Br)cc(S(=O)(=O)CCC(=O)N3CCN(c4ccccc4)CC3)c21 | inactive: -5.57% |
| Cc1nc2cc(C(=O)NC3CCCCCC3)ccc2n1-c1ccc(Br)cc1 | inactive: 2.55% |
| CC(C)c1ccc(NS(=O)(=O)c2ccc3[nH]cc(C(=O)NCC4CCCO4)c(=O)c3c2)cc1 (stereo not drawn) | inactive: 1.73% |
| Cc1cc(-c2ccc(C)c(S(=O)(=O)NCCc3ccc(S(N)(=O)=O)cc3)c2)on1 | inactive: 5.55% |
| CCOc1ccc2nc(N3CCCC(C(=O)Nc4ccc(OC)c(Cl)c4)C3)sc2c1 (stereo not drawn) | inactive: -15.7% |
| CN(C)S(=O)(=O)c1ccc2c(c1)N(CC(=O)Nc1ccc(F)cc1)C(=O)CS2 | inactive: -14.4% |

| Compound | activity change, negative = inhibition |
| --- | --- |
| O=C(CSc1oc(-c2ccco2)nc1S(=O)(=O)c1ccc(Cl)cc1)c1ccc(Cl)cc1 | inactive: -2.32% |
| Cc1ccc2oc(=O)c3cc(C(=O)N(Cc4ccccc4)C(C)C)sc3c2c1 | inactive: -2.32% |
| COc1ccc(CNC(=O)CC2N=C3c4ccccc4N=C(SCC(=O)Nc4ccc(N(C)C)cc4)N3C2=O)cc1 (stereo not drawn) | inactive: 3.98% |
| Cc1ccc(CN2c3ccccc3S(=O)(=O)c3ccccc32)cc1 | inactive: 13.5% |
| Cc1ccc(NC(=O)Cn2c(-c3ccc4c(c3)OCO4)cn(-c3ccccc3)c2=O)cc1 | inactive: -6.57% |
| Cc1ccc2c(c1)c1c(c(=O)n(Cc3ccccc3)c(=O)n1CC(=O)Nc1ccccc1C)n2C | inactive: 0.262% |
| COc1ccc(-c2c3c(=O)n(C)c(=O)n(C)c3c3c(-c4ccc(C)cc4)nc4ccccc4n23)cc1 | inactive: 6.25% |
| CCCCCNC(=O)C(=O)NCC(c1ccc2c(c1)OCO2)N1CCOCC1 (stereo not drawn) | inactive: -3.1% |
| CCC(C(=O)Nc1cccc(C#N)c1)n1c(=O)c(-c2ccccc2NC(C)=O)nc2ccccc21 (stereo not drawn) | inactive: -1.28% |
| Cc1ccc(CSc2nc(=O)c3c(n2C)NC(=O)CC3c2ccc(OC(C)C)cc2)cc1 (stereo not drawn) | inactive: -1.04% |
| CCN1CCC(N(Cc2cccc(OC)c2)C(=O)Nc2ccc(C)cc2Cl)CC1 | inactive: -0.887% |
| Cc1ccc(S(=O)(=O)Nc2cc3c(cc2N2CCOCC2)n(C)c(=O)n3C)c(C)c1 | inactive: 1.52% |
| COc1cc(NC(=O)c2cnn(-c3cccc(F)c3)c2C2CCNCC2)cc(OC)c1OC | inactive: 4.2% |
| CCc1nnc(NC(=O)CSCc2cc(=O)c3ccc(C)cc3[nH]2)s1 | inactive: -16% |
| Cc1cc(O)c(C(c2ccccc2Cl)N2CCN(c3ccccc3)CC2)c(=O)n1Cc1ccco1 (stereo not drawn) | inactive: 4.68% |
| Cc1ccc(C)c(NC(=O)CCCn2nc(C)c3sc4ccccc4c3c2=O)c1 | inactive: 0.962% |
| COc1cc(CN(C(=O)COc2ccc(C)c(C)c2)c2ccccn2)cc(OC)c1OC | inactive: -14.8% |
| COc1ccc(NC(=O)CN(Cc2ccccc2)S(=O)(=O)c2ccc3nc(C)sc3c2)cc1 | inactive: -6.88% |
| CCCN(CCC)CCNC(=O)c1cc2c(-c3ccccc3F)nn(C)c2s1 | inactive: -14.4% |
| CCN(CC)CCNC(=O)Cn1ncc2c([nH]c3ccccc32)c1=O | inactive: -10.6% |
| CCCCN(CC)CCCNC(=O)c1cc2c(-c3ccc(OC)c(OC)c3)nn(C)c2s1 | inactive: -16.2% |
